{"source": "PubChem BioAssay AID651820", "about": "(National Center for Advancing Translational Sciences (NCATS), 2012)", "note": "Values joined by “and” are separate entries in the source; they are usually repeats but may differ in a detail not shown here. Equal values may be shown once. In all, about 340,000 compounds went through this assay and about 12,000 (3.5%) were called active. Inconclusive means that the source gave no clear call. Such entries were picked first, then a sample of the others. Calls follow the shape of the dose curve; as a rule, active = well fitted inhibition curve with a large enough effect; inconclusive = small, poorly fitted or top-dose-only effect, or another doubt; inactive = no such curve, though single readings can be large or run the other way. Potencies of inconclusive entries are left out as doubtful fits. Some structures have more than one record in an assay (separate samples or runs), and their calls can disagree. % is scaled to controls: 0 for no effect and ±100 for the full control effect; potency is read from the fitted curve at half-maximal effect; tags tell the direction and shape of the fitted curve."}
{"assay": "qHTS Assay for Inhibitors of Hepatitis C Virus (HCV)", "details": "Huh7.5.1 HCVcc-Cre (HCVcc is cell-culture hepatitis C virus) infection, luciferase reporter, 44 h; activity change, negative = inhibition: at 41.8 µM (top of the series)", "method_in_brief": "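HCVcc-Cre virus at an moi near 0.5 was added right after compound to cells cultured 4 h from seeding (1,000 cells/well). Luciferase activity was determined 44 h later, 15 min after substrate addition at RT.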"}
{"smiles": "O=C(Nc1nc(-c2ccccc2)cs1)C1CCCN(S(=O)(=O)c2ccccc2)C1", "note": "(stereo unspecified)", "Potency": "active: 5.01 µM"}
{"smiles": "CN(CCOc1ccccc1)C(=O)c1cc(-c2ccco2)nc2ccccc12", "Potency": "inconclusive [inhibitor, partial curve]"}
{"smiles": "O=C(NC1CCSc2ccccc21)c1cccc(Br)c1", "note": "(stereo unspecified)", "Potency": "inconclusive [inhibitor, single point]"}
{"smiles": "Cc1cc(C(=O)CSc2nc(N)cc(=O)[nH]2)c(C)n1Cc1ccco1", "Potency": "inconclusive [inhibitor, partial curve]"}
{"smiles": "COc1ccc(S(=O)(=O)NCCCc2ccccc2)cc1", "Potency": "inconclusive [inhibitor, single point]"}
{"smiles": "CCOC(=O)CSc1nc2sc3c(c2c(=O)n1-c1ccccc1)CCN(C)C3", "Potency": "inconclusive [inhibitor, partial curve]"}
{"smiles": "COc1ccc(C(=O)c2cc([N+](=O)[O-])ccc2N2CCN(C)CC2)cc1", "Potency": "inconclusive [inhibitor, partial curve]"}
{"smiles": "CN(C)CCOCCOc1ccccc1-c1ccccc1", "Potency": "inconclusive [inhibitor, single point]"}
{"smiles": "COC(=O)C1=C(c2ccc(-c3ccccc3)c(F)c2)C[C@@H]2CC[C@H]1N2C(=O)NCCc1ccccc1", "Potency": "inconclusive [inhibitor, single point]"}
{"smiles": "CCOc1cc([C@@H]2C[C@H]3CN(c4ccccc4)C(=O)[C@]34CCCN24)ccc1OC", "Potency": "inconclusive [inhibitor, single point]"}
{"smiles": "CCN(CC)C(=O)[C@H]1C[C@H](CC(=O)NCCCN(C)C)C(=O)N2CCc3c([nH]c4cc(-c5ccco5)ccc34)[C@]12C", "Potency": "inconclusive [inhibitor, single point]"}
{"smiles": "COc1ccc(-c2cc(C(F)(F)F)n3ncc(C(=O)N(C)Cc4ccccc4)c3n2)cc1", "Potency": "inconclusive [inhibitor, partial curve]"}
{"smiles": "COCC(=O)Nc1nc2n(n1)C(c1ccc(OC)cc1)CC(c1ccc(OC)cc1)N2", "note": "(stereo unspecified)", "Potency": "inconclusive [inhibitor, single point]"}
{"smiles": "Cc1cc2oc(=O)cc(CN3CCCCC3C)c2c(C)c1Cl", "note": "(stereo unspecified)", "Potency": "inconclusive [inhibitor, single point]"}
{"smiles": "O=C(Nc1sc2c(c1C(=O)c1ccc(Cl)cc1)CCCC2)c1cccnc1", "Potency": "inconclusive [inhibitor, partial curve]"}
{"smiles": "CN(CC(=O)Nc1ccccc1N1CCCC1)S(=O)(=O)c1ccc(F)cc1", "activity change, negative = inhibition": "inconclusive: -37.4% [inhibitor]"}
{"smiles": "CCOC(=O)/C(=C/c1ccc(OC(=O)c2ccccc2)cc1)C(C)=O", "activity change, negative = inhibition": "inactive: -9.27% [at 0.335 µM]"}
{"smiles": "Cc1cccc(C)c1NC(=O)CSc1nc2ccccc2c(=O)[nH]1", "Potency": "inconclusive [inhibitor, partial curve]"}
{"smiles": "Cc1cccc(-n2c(=O)[nH]c3c(C(N)=O)nc(C(C)C)nc32)c1", "Potency": "inconclusive [inhibitor, single point]"}
{"smiles": "CCn1nc(C)c(CNC(=O)c2cc(COc3ccc(F)cc3Cl)on2)c1C", "Potency": "inconclusive [inhibitor, full curve]"}
{"smiles": "CCNC(=O)NC(=O)C(C)OC(=O)CCCc1nc2ccccc2s1", "note": "(stereo unspecified)", "Potency": "inactive"}
{"smiles": "COc1ccc(-c2nn(CC(=O)NCCc3ccccc3)c(=S)n2C)cc1", "Potency": "inconclusive [inhibitor, single point]"}
{"smiles": "CCOC(=O)N1CCC(NC(=O)CSc2cc(=O)n(CC)c3ccccc23)CC1", "Potency": "inconclusive [inhibitor, single point]"}
{"smiles": "O=C(c1coc(=O)c(Br)c1)N1CCC(C(O)(c2ccccc2)c2ccccc2)CC1", "Potency": "inconclusive [inhibitor, single point]"}
{"smiles": "O=C(O)c1cccc(N2C(=O)c3cc([N+](=O)[O-])cc4cc([N+](=O)[O-])cc(c34)C2=O)c1", "Potency": "inconclusive [inhibitor, single point]"}
{"smiles": "Cc1ccc(-c2csc(N(CCCN3CCOCC3)C(=O)c3ccco3)n2)cc1", "Potency": "active: 11.2 µM"}
{"smiles": "O=C1NC(=O)c2c(Br)c(Br)c(Br)c(Br)c21", "Potency": "inactive"}
{"smiles": "Cc1nc(N(C)Cc2ccccc2)c2c(C)c(C)sc2n1", "Potency": "inconclusive [inhibitor, single point]"}
{"smiles": "Cn1nc(-c2ccc(N3CCCCC3)c(NC(=O)c3ccco3)c2)c2ccccc2c1=O", "Potency": "inactive and active: 7.08 µM"}
{"smiles": "COC1=CC2[C@@H]3Cc4ccc(OC)c(O)c4[C@]2(CCN3C)CC1=O", "note": "(stereo partly specified)", "Potency": "inconclusive [inhibitor, single point]"}
{"smiles": "C/C(N)=C(/C#N)C(=O)COc1ncnc2ccccc12", "Potency": "inactive"}
{"smiles": "COc1ccc(CCN2C(=O)C=CC2=O)cc1OC", "Potency": "inconclusive [inhibitor, single point]"}
{"smiles": "COc1ccc(N(C)S(=O)(=O)c2ccc3c(c2)CC(C)N3C(=O)C2CC2)c(OC)c1", "note": "(stereo unspecified)", "Potency": "inconclusive [inhibitor, single point]"}
{"smiles": "COc1ccc(N2C(=O)CC(N3CCN(c4ccc(Cl)cc4)CC3)C2=O)cc1", "note": "(stereo unspecified)", "Potency": "inactive"}
{"smiles": "CC(=O)Nc1cccc(C(=O)/C=C/c2ccc(F)cc2)c1", "Potency": "inconclusive [inhibitor, single point]"}
{"smiles": "COc1ccc(CCNCc2c(OC)ccc3ccccc23)cc1", "Potency": "inconclusive [inhibitor, partial curve]"}
{"smiles": "Cc1cccc(Nc2ncnc3onc(-c4cccc(Cl)c4)c23)c1", "Potency": "inconclusive [inhibitor, single point]"}
{"smiles": "CCOc1ccccc1NC(=O)Nc1cccc(NC(C)=O)c1", "Potency": "inconclusive [inhibitor, single point]"}
{"smiles": "Cc1ccccc1NC(=O)c1ccno1", "Potency": "inactive"}
{"smiles": "CC1=C(CC[C@@H](C)CO)OC2CC3C4CCC5CC(O)CCC5(C)C4CC(=O)C3(C)C12", "note": "(stereo partly specified)", "Potency": "inconclusive [inhibitor, single point]"}
{"smiles": "COc1ccc(NC(=O)c2nc(C)n(-c3ccc([N+](=O)[O-])cc3)n2)cc1", "Potency": "inactive"}
